Results taken from PubChem BioAssay.
This list was built around the results that the source calls inconclusive (neither active nor inactive); the mix of calls is not that of the screen. The source made the active and inactive calls.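 How the source made its calls, unless noted: active means thallium flux rate significantly above the same plate's solvent-only control wells, beyond their mean plus 3 SD; inconclusive means the two replicate wells gave conflicting results; inactive means the rest.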

Columns and labels:
[1] = compound effects on native HEK Tl+ uptake – HEK cells, counterscreen 1, counter-screen for KCC2 modulator project, confirmation (AID 1716); settings: HEK293 parental cells, thallium flux FluoZin2, ouabain; at 10 µM; baseline-ratio fluorescence slope, 10–20 s after thallium
[2] = molecular target: Solute carrier family 12 member 5 (Homo sapiens) (UniProt Q9H2X9); assay: modulation of KCC2 thallium flux in HEK cells – cell-based, ouabain, retest, confirmation (AID 1717;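 active means thallium flux slope beyond 3 SD from same-plate DMSO control mean in most replicates, usually higher, sometimes lower; inconclusive means repeat tests gave conflicting results; inactive means no significant difference from controls in most replicates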;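 further: slope of initial-normalized fluorescence between seconds 10 and 20 after thallium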); settings: HEK293-KCC2, thallium flux FluoZin2 fluorescence, at 10 µM, bidirectional: low = inhibitor, high = activator
[3] = native HEK Tl+ uptake effects, second counter-screen – HEK cells, counterscreen 2, counter-screen for KCC2 modulator project, confirmation (AID 1718;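 active means thallium flux slope above the same plate's solvent-control mean plus 3 SD in both duplicate wells; inconclusive means duplicate wells that disagreed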;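 further: run without ouabain in cells lacking the KCC2 cotransporter; slope of fluorescence scaled to its starting value between 10 and 20 s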); settings: HEK293 parental, thallium flux FluoZin-2 fluorescence slope; at 10 µM
In short: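 System: untransfected HEK cells, thallium influx assay; Schedule: 37 °C overnight growth, 48 min FluoZin2-AM loading; Medium: HBSS with 20 mM HEPES for dye loading; Measured by: FluoZin2-AM fluorescence (0.5 µM), ex 480 nm, em 540 nm, kinetic 1 Hz; Read-out: thallium influx rate; Compound: single 10 µM final compound dose, 0.1% DMSO.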

UniProt Q9H2X9, sequence (Q9H2X9 whole entry, looked up): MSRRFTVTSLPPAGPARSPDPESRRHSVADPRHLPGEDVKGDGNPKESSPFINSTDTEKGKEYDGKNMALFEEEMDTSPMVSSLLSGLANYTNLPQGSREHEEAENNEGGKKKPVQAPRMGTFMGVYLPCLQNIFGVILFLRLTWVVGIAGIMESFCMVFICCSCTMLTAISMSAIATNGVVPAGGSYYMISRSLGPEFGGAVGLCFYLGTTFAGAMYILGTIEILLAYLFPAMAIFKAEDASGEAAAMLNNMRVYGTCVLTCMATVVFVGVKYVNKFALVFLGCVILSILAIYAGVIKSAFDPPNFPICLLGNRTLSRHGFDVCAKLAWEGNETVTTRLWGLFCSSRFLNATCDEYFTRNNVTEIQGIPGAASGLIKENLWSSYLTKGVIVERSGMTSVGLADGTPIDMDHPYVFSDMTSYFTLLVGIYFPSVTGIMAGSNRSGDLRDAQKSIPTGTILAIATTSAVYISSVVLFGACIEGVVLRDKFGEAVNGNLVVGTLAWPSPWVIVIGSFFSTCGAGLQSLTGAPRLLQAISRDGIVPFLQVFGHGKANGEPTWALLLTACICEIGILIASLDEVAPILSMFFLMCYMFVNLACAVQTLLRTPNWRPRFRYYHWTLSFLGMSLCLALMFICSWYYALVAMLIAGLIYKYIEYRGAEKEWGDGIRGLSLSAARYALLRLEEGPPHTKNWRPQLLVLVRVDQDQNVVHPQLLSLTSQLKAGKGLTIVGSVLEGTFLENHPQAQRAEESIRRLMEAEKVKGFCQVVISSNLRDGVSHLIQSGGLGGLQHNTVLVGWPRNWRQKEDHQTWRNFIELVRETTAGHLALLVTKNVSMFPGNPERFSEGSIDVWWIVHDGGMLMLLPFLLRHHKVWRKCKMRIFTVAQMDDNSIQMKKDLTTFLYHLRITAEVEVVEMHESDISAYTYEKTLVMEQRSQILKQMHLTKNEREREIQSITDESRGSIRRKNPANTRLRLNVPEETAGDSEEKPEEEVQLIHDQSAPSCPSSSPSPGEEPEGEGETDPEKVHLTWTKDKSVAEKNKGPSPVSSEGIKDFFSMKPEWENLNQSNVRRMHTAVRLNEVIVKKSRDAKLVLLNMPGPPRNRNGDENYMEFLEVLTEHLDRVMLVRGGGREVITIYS

Compound	thallium flux rate (normalised fluorescence) [1]	raw Tl+ flux slope (below DMSO = inhibition, above = activation) [2]	thallium flux slope [3]
CCNC(=S)N=Nc1c(O)[nH]c2ccc([N+](=O)[O-])cc12	active: 0.013	inactive: 0.0258	inconclusive: 0.0112
CSc1nc2[nH]c3c(c2c2ncnn12)CCCC3	inactive: 0.00752	inactive: 0.0192	inactive: 0.0108
N#CC1=C(N)NC(SCc2ccc(F)cc2)=C(C#N)C12CCCCC2	inconclusive: 0.00659	inconclusive: 0.015	
CN(Cc1ccccc1)c1oc(COc2ccccc2F)nc1C#N	inactive: 0.0067	inconclusive: 0.0191	
COc1ccccc1NS(=O)(=O)c1cccc2cccnc12	inconclusive: 0.00862	inactive: 0.0229	inconclusive: 0.0113
O=C(CO/N=C/c1c(Cl)cccc1Cl)NNC(=O)c1ccc(Cl)cc1	inconclusive: 0.007	inactive: 0.0209	inactive: 0.0117
O=C(Nc1ccccc1)/C(=C\c1ccncc1)NC(=O)c1ccccc1	inconclusive: 0.0085	inactive: 0.0169	
Cn1nnnc1SCCNCc1ccncc1	inconclusive: 0.00758	inactive: 0.0215	
O=C(NC(=O)c1ccncc1)NC(c1ccccc1)c1ccccc1	inconclusive: 0.00766	inactive: 0.0198	inactive: 0.00974
Cc1nc(N2CCN(C(=O)c3ccc(Cl)cc3)CC2)c(C#N)c2c1COC(C)(C)C2	inconclusive: 0.00651	inactive: 0.0167	
O=C1/C(=C/C=C/c2ccco2)SC(=S)N1NS(=O)(=O)c1ccccc1	active: 0.0172	inconclusive: 0.0219	active: 0.0178
CCCCn1c(N2CCC(Cc3ccccc3)CC2)nc2c1c(=O)[nH]c(=O)n2C	inconclusive: 0.00305	inconclusive: 0.0173	
Cc1ccc(OCC(=O)N2CCN(C(=O)c3cccnc3)CC2)cc1	inconclusive: 0.00871	inactive: 0.0189	inactive: 0.0114
Fc1ccccc1COc1ccc2ccccc2c1CNc1nn[nH]n1	inconclusive: 0.00642		inconclusive: 0.00834
Cc1ccccc1C(=O)Nc1nnc(-c2ccc(F)cc2)o1	active: 0.0156		inconclusive: 0.0112
Cc1ccc(C)c(S(=O)(=O)N2CCN(CC(=O)N3CCc4ccccc4C3)CC2)c1	inactive: 0.00675		inconclusive: 0.0107
Cc1nn(-c2ccccc2)nc1C(=O)c1c(C)[nH]n(-c2ccccc2)c1=O	inconclusive: 0.0077		inconclusive: 0.0138
CS/C(N)=N/C(=S)Nc1cccc(Cl)c1	inconclusive: 0.00948	inactive: 0.0226	inconclusive: 0.0112
